Measured values published in patent publication US20100210555A1, “USE OF A LAMININ PEPTIDE AS A THERAPEUTIC AGENT” (priority 2007, published 2010).

Tested on: RAW 264.7 (Mouse leukaemic monocyte macrophage cell line) cells
Test: Phagocytosis assay
Assay type: cell-based
Details: 10 micrograms per ml; RAW 264.7, Fluorescein-labeled Escherichia coli; combination peptide 1:peptide 2 1.10 mole: 0.90 mole

Row | Substance | effect on the phagocytic activity of murine macrophages (increase)
1 | Cys-Ser-Arg-Ala-Arg-Lys-Gln-Ala-Ala-Ser-Ile-Lys-Val-Ala-Val-Ser-Ala-Asp-Arg-OH (CSRARKQAASIKVAVSADR-OH) [peptide 1] | 31.4%
2 | Pro-His-Pro-Phe-His-Leu-Phe-Val-Tyr-OH (PHPFHLFVY-OH) [peptide 2] | no inhibitory or activating effects

Where no end group is shown, it is not given here.
